Test results published in patent US20090312249A1 (KOREA ADVANCED INSTITUTE OF SCIENCE AND TECHNOLOGY, published 2009).

T1: MD-2 (myeloid differentiation protein-2) (UniProt Q9Y6Y9 19-160, limits assumed)
T1 sequence (looked up): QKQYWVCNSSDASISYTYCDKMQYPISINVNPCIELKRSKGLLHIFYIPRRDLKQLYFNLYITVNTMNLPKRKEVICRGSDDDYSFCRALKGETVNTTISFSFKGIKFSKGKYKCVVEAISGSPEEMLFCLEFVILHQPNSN

B1: TOY3 (Fc fusion)
chain: ADPEPCVEVVPNITYQCMELNFYKIPDNLPFSTKNLDLSFNPLRHLGSYSFFSFPELQVLDLSRCEIQTIEDGAYQSLSHLSTLILTGNPIQSLALGAFSGLSSLQKLVAVETNLASLENFPIGHLKTLKELNVAHNLIQSFKLPEYFSNLTNLEHLDLSSNKIQSIYCTDLRVLHQMPLLNLSLDLSLNPMNFIQPGAFKEIRLKELALDTNQLKSVPDGIFDRLTSLQKIWLHTNPWDCSCPRIDYLSRWLNKNSQKEQGSAKCSGSGKPVRSIICPTLE[human IgG1 Fc cut from this listing]
notes: Bears only the A patch of TLR4; also called TLR4 decoy receptor protein 3; CHO-TOY3 product
B2: TOY8 (Fc fusion)
chain: ADPEPCVEVVPNITYQCMELNFYKIPDNLPFSTKNLDLSFNPLRHLGSYSFFSFPELQVLDLSRCEIQTIEDGAYQSLSHLSTLILTGNPIQSLALGAFSGLSSLQKLVAVETNLASLENFPIGHLKTLKELNVAHNLIQSFKLPEYFSNLTNLEHLDLSSNKIQSIYCTDLRVLHQMPLLNLSLDLSLNPMNFIQPGAFKEIRLHKLTLRNNFDSLNVMKTCIQGLAGLEVHRLVLGEFRNEGNLEKFDKSALEGLCNLTIEEFRLAYLDYYLDDIIDLFNCLTNVSSFSLVSVTIERVKDFSYNFGWQHLELVNCKFGQFPTLKLKSLKRLTFTSNKGGNAFSEVDLPSLEFLDLSRNGLSFKGCCSQSDFGTTSLKYLDLSFNGVITMSSNFLGLEQLEHLDFQHSNLKQMSEFSVFLSLRNLIYLDISHTHTRVAFNGIFNGLSSLEVLKMAGNSFQENFLPDIFTELRNLTFLDLSQCQLEQLSPTAFNSLSSLQVLNMASNQLKSVPDGIFDRLTSLQKIWLHTNPWDCSCPRIDYLSRWLNKNSQKEQGSAKCSGSGKPVRSIICPTLE[human IgG1 Fc cut from this listing]
notes: also called TLR4 decoy receptor protein 8; CHO-TOY8 product

How the values were obtained:
[1] = molecular target: T1, MD-2 (myeloid differentiation protein-2); experiment: SPR (BIAcore 3000): TOY3 amine-coupled on a CM5 chip, MD-2 at 8 to 250 nM as analyte, 25 C, 1:1 Langmuir fit
Protocol: (§1) The interactions for binding between TFL and MD-2, between TOY3 and MD-2, and between TOY8 and MD-2 were analyzed with BIAcore 3000 (BIAcore AB, Uppsala, Sweden). TFL, TOY3 or TOY8 (30 μg/ml) in 10 mM sodium acetate (pH 5.5) was immobilized on a CM5 sensor chip using the amine-coupling method. MD-2 in HBS-EP buffer (BIAcore AB) at a concentration of 8 nM to 250 nM was passed over the surface of the sensor chip at a flow rate of 60 μl/min. The interactions were monitored as the changes of surface plasmon resonance response at 25° C. After 1 min of monitoring, the same buffer was introduced onto the sensor chip in place of the MD-2 solution to start the dissociation. The sensor surface was regenerated with 10 mM Glycine (pH 2.3) at the end of each experiment. Both the association rate constant (kₐ) and the dissociation rate constant (kd) were calculated according to the BIAevaluation software (version 3.1; BIAcore AB) using a program named 1:1 (Langmuir) binding model. The dissociation constant (KD) was determined by kₐ/kd.

[2] = molecular target: T1, MD-2 (myeloid differentiation protein-2); experiment: SPR (BIAcore 3000), TOY3 amine-coupled on CM5 chip, MD-2 8-250 nM as analyte, 1:1 Langmuir model, 25 C
Protocol: as §1

[3] = molecular target: T1, MD-2 (myeloid differentiation protein-2); experiment: SPR (BIAcore 3000): TOY8 amine-coupled on a CM5 chip, MD-2 at 8 to 250 nM as analyte, 25 C, 1:1 Langmuir fit
Protocol: as §1

[4] = molecular target: T1, MD-2 (myeloid differentiation protein-2); experiment: SPR (BIAcore 3000), TOY8 amine-coupled on CM5 chip, MD-2 8-250 nM as analyte, 1:1 Langmuir model, 25 C
Protocol: as §1

Binder | Kd [1] [nM] | koff [1] [s⁻¹] | kon [1] [M⁻¹ s⁻¹] | Kd [2] [nM] | koff [3] [s⁻¹] | kon [3] [M⁻¹ s⁻¹] | Kd [4] [nM]
B1 | 76.1 | 0.00188 | 24700 | ~76 | – | – | –
B2 | – | – | – | – | 0.00177 | 31500 | ~56
